Results published in the supplement of paper PMC4967469.
A lower IC50 marks a more sensitive line; where the fit passes the top or lowest dose, that dose stands as a limit. AUC, from the same fit, is the share of area under the viability curve across the 256-fold dose range; values near 1 show little effect. For part of these data: A top dose marked as inferred is not printed in the source and was worked back from the curve model.

Experiments:
Assay in all cases: Viability of human cancer cell lines after 72 h of drug (GDSC screen)
[1] = compound: Nc1ccccc1NC(=O)c1ccc(CNC(=O)OCc2cccnc2)cc1 [MS-275]; details: top dose 5 µM; top dose inferred
Procedure: (§1)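 Human cancer cell lines in 384-well plates, medium with 10% serum, drug for 72 h over a 256-fold dose range (nine 2-fold or five 4-fold steps up to the top dose). Adherent lines were fixed and stained with the nucleic acid dye Syto60, suspension lines read with resazurin; signal relative to control wells, capped at 0 and 100%. One two-parameter sigmoid per drug and line, fitted in a mixed model over all curves with the slope shared within a line.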

[2] = compound: CCN1CCN(Cc2ccc(NC(=O)c3ccc(C)c(/C=C/c4cnc5[nH]ccc5c4OC)c3)cc2C(F)(F)F)CC1 [HG-6-64-1]; details: top dose 5.12 µM; top dose inferred
Procedure: as §1

[3] = compound: CCc1cncnc1N1CCN(Cc2nc3ccc(C(F)(F)F)cc3[nH]2)CC1 [PF-4708671]; details: top dose 10 µM; top dose inferred
Procedure: as §1

[4] = compound: COc1cc2nccc(Oc3ccc(NC(=O)Nc4cc(C)on4)c(Cl)c3)c2cc1OC [AV-951]; details: top dose 0.128 µM; top dose inferred
Procedure: as §1

[5] = compound: CCNC(=O)C[C@@H]1N=C(c2ccc(Cl)cc2)c2cc(OC)ccc2-n2c(C)nnc21 [I-BET-762]; details: top dose 20 µM; top dose inferred
Procedure: as §1

[6] = compound: CC(=O)Nc1cccc(-n2c(=O)n(C3CC3)c(=O)c3c(Nc4ccc(I)cc4F)n(C)c(=O)c(C)c32)c1 [Trametinib]; details: top dose 1 µM
Procedure: as §1

[7] = compound: O=C(NC(COc1ccc2[nH]c(=O)[nH]c2c1)c1ccccc1)c1cccn(Cc2ccc(F)c(F)c2)c1=O [KIN001-244]; details: top dose 20 µM; top dose inferred
Procedure: as §1

Row | Cell Line | AUC [1] | IC50 [1] [nM] | AUC [2] | IC50 [2] [nM] | AUC [3] | IC50 [3] [nM] | AUC [4] | IC50 [4] [nM] | AUC [5] | IC50 [5] [nM] | AUC [6] | IC50 [6] [nM] | AUC [7] | IC50 [7] [nM]
1 | 8-MG-BA (glioma, adherent) | 0.725 | 1300 | 0.406 | 179 | 0.976 | > 10000 | 0.98 | > 128 | 0.973 | > 20000 | 0.802 | 457 | 0.85 | 13700
2 | A3-KAW (B-cell lymphoma, suspension) | 0.447 | 231 | 0.722 | 1160 | 0.957 | > 10000 | 0.992 | > 128 | 0.367 | 582 | 0.286 | 18.1 | 0.808 | 7890
3 | A4-Fuk (B-cell lymphoma, suspension) | 0.644 | 799 | 0.559 | 466 | 0.975 | > 10000 | 0.983 | > 128 | 0.871 | > 20000 | 0.712 | 255 | 0.534 | 1560
4 | A101D (melanoma, adherent) | 0.551 | 446 | 0.539 | 420 | 0.981 | > 10000 | 0.981 | > 128 | 0.917 | > 20000 | 0.237 | 8.89 | 0.817 | 14500
5 | A388 (skin, adherent) | 0.733 | 1620 | 0.877 | > 5120 | 0.946 | > 10000 | 0.982 | > 128 | 0.983 | > 20000 | 0.888 | > 1000 | 0.859 | > 20000
6 | ALL-PO (lymphoblastic leukaemia, suspension) | 0.258 | 60.6 | 0.558 | 466 | 0.777 | 4250 | 0.983 | > 128 | 0.438 | 837 | 0.978 | > 1000 | 0.591 | 2260
7 | AM-38 (glioma, semi-adherent) | 0.983 | > 5000 | 0.812 | 2810 | 0.963 | > 10000 | 0.977 | > 128 | 0.96 | > 20000 | 0.981 | > 1000 | 0.658 | 3460
8 | AMO-1 (haematopoietic neoplasm, suspension) | 0.752 | 1450 | 0.934 | > 5120 | 0.974 | > 10000 | 0.983 | > 128 | 0.685 | 3770 | 0.885 | 825 | 0.747 | 5630
9 | ARH-77 (myeloma, suspension) | 0.544 | 410 | 0.796 | 2290 | 0.918 | > 10000 | 0.98 | > 128 | 0.835 | 12400 | 0.941 | > 1000 | 0.867 | 16900
10 | ATN-1 (T-cell lymphoblastic leukaemia, suspension) | 0.513 | 338 | 0.981 | > 5120 | 0.909 | > 10000 | 0.983 | > 128 | 0.928 | > 20000 | 0.986 | > 1000 | 0.85 | 13700
11 | BB30-HNC (head and neck, adherent) | 0.726 | 1350 | 0.517 | 357 | 0.968 | > 10000 | 0.985 | > 128 | 0.912 | > 20000 | 0.398 | 33.1 | 0.867 | 17500
12 | BB49-HNC (head and neck, adherent) | 0.745 | 2150 | 0.786 | 3260 | 0.874 | > 10000 | 0.978 | > 128 | 0.964 | > 20000 | 0.232 | 7.32 | 0.972 | > 20000
13 | BB65-RCC (kidney, adherent) | 0.764 | 2080 | 0.79 | 2660 | 0.982 | > 10000 | 0.981 | > 128 | 0.977 | > 20000 | 0.494 | 60.1 | 0.897 | > 20000
14 | BC-1 (B-cell lymphoma, suspension) | 0.572 | 477 | 0.897 | 4720 | 0.897 | 9170 | 0.985 | > 128 | 0.53 | 1490 | 0.902 | 973 | 0.825 | 9710
15 | BE2-M17 (neuroblastoma, adherent) | 0.771 | 1980 | 0.975 | > 5120 | 0.976 | > 10000 | 0.986 | > 128 | 0.967 | > 20000 | 0.837 | 701 | 0.917 | > 20000
16 | BE-13 (lymphoblastic leukaemia, suspension) | 0.573 | 488 | 0.137 | 25.9 | 0.869 | 8190 | 0.947 | > 128 | 0.817 | 10200 | 0.973 | > 1000 | 0.836 | 12000

Row | Cell Line | AUC [1] | IC50 [1] [nM] | AUC [2] | IC50 [2] [nM] | AUC [3] | IC50 [3] [nM] | AUC [4] | IC50 [4] [nM] | AUC [5] | IC50 [5] [nM] | AUC [6] | IC50 [6] [nM] | AUC [7] | IC50 [7] [nM]
17 | BL-41 (Burkitt lymphoma, suspension) | 0.597 | 539 | 0.63 | 667 | 0.99 | > 10000 | 0.988 | > 128 | 0.508 | 1310 | 0.991 | > 1000 | 0.757 | 5480
18 | BT-474 (breast, adherent) | 0.746 | 1740 | 0.935 | > 5120 | 0.908 | > 10000 | 0.981 | > 128 | 0.958 | > 20000 | 0.984 | > 1000 | 0.87 | > 20000
19 | BV-173 (chronic myeloid leukaemia, suspension) | 0.5 | 312 | 0.535 | 395 | 0.931 | > 10000 | 0.865 | 91.3 | 0.507 | 1300 | 0.733 | 261 | 0.913 | > 20000
20 | C2BBe1 (large intestine, adherent) | 0.934 | > 5000 | 0.772 | 2260 | 0.958 | > 10000 | 0.982 | > 128 | 0.95 | > 20000 | 0.663 | 189 | 0.9 | > 20000
21 | CA46 (Burkitt lymphoma, suspension) | 0.903 | > 5000 | 0.499 | 317 | 0.909 | > 10000 | 0.981 | > 128 | 0.452 | 915 | 0.955 | > 1000 | 0.821 | 12700
22 | CAS-1 (glioma, adherent) | 0.894 | > 5000 | 0.755 | 2330 | 0.978 | > 10000 | 0.977 | > 128 | 0.875 | > 20000 | 0.719 | 331 | 0.912 | > 20000
23 | EoL-1-cell (haematopoietic neoplasm, suspension) | 0.985 | > 5000 | 0.046 | < 20 | 0.826 | 5120 |  |  | 0.592 | 2160 | 0.149 | 6.17 | 0.759 | 6260
24 | IST-SL2 (small cell lung carcinoma, suspension) | 0.771 | 1900 | 0.627 | 716 | 0.969 | > 10000 | 0.968 | > 128 | 0.984 | > 20000 | 0.973 | > 1000 |  | 
25 | LB647-SCLC (small cell lung carcinoma, semi-adherent) | 0.545 | 420 | 0.948 | > 5120 | 0.984 | > 10000 |  |  | 0.941 | > 20000 | 0.981 | > 1000 |  | 
26 | RL95-2 (endometrium, adherent) | 0.721 | 1310 | 0.789 | 2230 |  |  | 0.987 | > 128 | 0.94 | > 20000 | 0.189 | 7.49 | 0.857 | 16000
27 | RPMI-8402 (T-cell lymphoblastic leukaemia, suspension) | 0.56 | 443 | 0.708 | 1100 |  |  | 0.982 | > 128 | 0.562 | 1790 | 0.966 | > 1000 | 0.642 | 2880
28 | SK-N-FI (neuroblastoma, adherent) | 0.853 | 3880 | 0.989 | > 5120 |  |  | 0.981 | > 128 | 0.967 | > 20000 | 0.601 | 118 | 0.895 | > 20000
29 | SK-PN-DW (Ewing sarcoma, adherent) | 0.689 | 1080 | 0.724 | 1420 |  |  | 0.982 | > 128 | 0.881 | > 20000 | 0.973 | > 1000 | 0.793 | 9490
30 | TC-71 (Ewing sarcoma, adherent) | 0.91 | > 5000 | 0.992 | > 5120 |  |  | 0.992 | > 128 | 0.789 | 7280 | 0.982 | > 1000 | 0.735 | 5070
31 | TGBC1TKB (biliary tract, adherent) | 0.959 | > 5000 | 0.907 | > 5120 |  |  | 0.989 | > 128 | 0.983 | > 20000 | 0.886 | > 1000 | 0.911 | > 20000
32 | WSU-NHL (lymphoid neoplasm, suspension) | 0.854 | 3230 | 0.823 | 2550 |  |  | 0.988 | > 128 | 0.963 | > 20000 | 0.99 | > 1000 | 0.89 | 18200
